The text below walks through data of the supplement of paper PMC4604168 (melanoma cell lines).

The other results are listed elsewhere or left out. Many values rest on one well or one pass, so single values are uncertain.

Among the test systems are MZ2-MEL; MeWo; RPMI7951; RVH-421; SkMel28; SkMel2; SkMel30; UACC62.
What all share (assay): cell count relative to DMSO control; melanoma cells; higher = more viable cells
Common to all, as to conditions: library dose: low library concentration; 72 h
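Note: cell number obtained by counting DAPI-stained nuclei in high-throughput microscope images with image analysis software, screen run in 1,536-well plates.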

For `C[C@]1(O)C[C@@H](c2nc(-c3ccc4ccc(-c5ccccc5)nc4c3)c3c(N)nccn32)C1` + O=C(O)[C@@H]1[O][Sb](=[O])([O][Sb]2(=[O])[O][C@H]([C@H](O)CO)[C@H](O)[C@H](C(=O)O)[O]2)[O][C@H]([C@H](O)CO)[C@@H]1O [stibogluconate] (first compound 0.4 µM, partner dose 2 µM), the cell count in the experiment on MZ2-MEL worked out at 90.8%; with MeWo it was 99.8%; in the experiment with RPMI7951, 93.2%; in the experiment on RVH-421, 84%; with SkMel28 it was 96.5%; in the experiment on SkMel2, 84.5%. Moreover, the cell count stood at 89.5% in the experiment on SkMel30 and 103% in the experiment with UACC62.
For the compound `Cn1cnc2c(F)c(Nc3ccc(Br)cc3Cl)c(C(=O)NOCCO)cc21` [selumetinib] + COc1ccc(Cl)c(Nc2nc3ccccc3nc2NS(=O)(=O)c2cccc(NC(=O)C(C)(C)N)c2)c1 [XL147] (first compound 0.015 µM, partner dose 0.8 µM), the cell count in the experiment on MZ2-MEL worked out at 92.9%; with MeWo, 86.3%; in the experiment with RPMI7951 it was 116%; in the experiment with RVH-421, 62.5%; in the experiment on SkMel28, 86.6%; with SkMel2, 77.1%. Besides, the cell count with SkMel30 is 69.5%; with UACC62, 69.9%.
On to `COc1cc([C@@H]2c3cc4c(cc3[C@@H](O[C@@H]3O[C@@H]5CO[C@@H](C)O[C@H]5[C@H](O)[C@H]3O)[C@H]3COC(=O)[C@H]23)OCO4)cc(OC)c1O` [etoposide] + C[C@@H](N)c1ccc(C(=O)Nc2ccnc3[nH]ccc23)cc1 [RKI983] (first compound 0.02 µM, partner dose 0.4 µM), for which the cell count came to 78.8% in the experiment on MZ2-MEL; 86.7% in the experiment with MeWo; 76.7% with RPMI7951; 58.9% with RVH-421; 64.9% in the experiment on SkMel28; 94% with SkMel2. For the same compound, the cell count in the experiment on SkMel30 was found to be 90.4%; with UACC62, 77.4%.
For `COc1cc([C@@H]2c3cc4c(cc3[C@@H](O[C@@H]3O[C@@H]5CO[C@@H](C)O[C@H]5[C@H](O)[C@H]3O)[C@H]3COC(=O)[C@H]23)OCO4)cc(OC)c1O` [etoposide] + O=C(O)[C@@H]1[O][Sb](=[O])([O][Sb]2(=[O])[O][C@H]([C@H](O)CO)[C@H](O)[C@H](C(=O)O)[O]2)[O][C@H]([C@H](O)CO)[C@@H]1O [stibogluconate] (first compound 0.02 µM, partner dose 2 µM), the cell count with MZ2-MEL is 87.4%; in the experiment on MeWo, 91.5%; in the experiment with RPMI7951, 88.4%; with RVH-421, 104%; in the experiment with SkMel28, 111%; in the experiment on SkMel2, 99.8%. The cell count with SkMel30 is 79.7%; in the experiment on UACC62, 89.7%.
Regarding `C[C@]1(O)C[C@@H](c2nc(-c3ccc4ccc(-c5ccccc5)nc4c3)c3c(N)nccn32)C1` + CC(C)C[C@H](NC(=O)[C@H](Cc1ccccc1)NC(=O)c1cnccn1)B(O)O [Bortezomib] (first compound 0.4 µM, partner dose 0.001 µM), the cell count came to 89.2% in the experiment with MZ2-MEL; 101% with MeWo; 82.9% in the experiment with RPMI7951; 86.4% with RVH-421; 89% with SkMel28; 85.8% with SkMel2. Also, the cell count in the experiment on SkMel30 is 96%; in the experiment on UACC62, 87.2%.
Turning to `COc1cc([C@@H]2c3cc4c(cc3[C@@H](O[C@@H]3O[C@@H]5CO[C@@H](C)O[C@H]5[C@H](O)[C@H]3O)[C@H]3COC(=O)[C@H]23)OCO4)cc(OC)c1O` [etoposide] + Nc1ccn([C@@H]2O[C@H](CO)[C@@H](O)C2(F)F)c(=O)n1 [gemcitabine] (first compound 0.02 µM, partner dose 0.0004 µM), the cell count came to 91.1% in the experiment with MZ2-MEL; 85.9% in the experiment on MeWo; 87.8% with RPMI7951; 100% in the experiment with RVH-421; 86.5% in the experiment on SkMel28; 92% in the experiment on SkMel2. Moreover, the cell count in the experiment with SkMel30 is 92.9%; in the experiment with UACC62 it was 86.2%.
Consider `CCN(CC)CCNC(=O)c1c(C)[nH]c(/C=C2\C(=O)Nc3ccc(F)cc32)c1C` [sunitinib] + C[C@@H](Oc1cc(-c2cnn(C3CCNCC3)c2)cnc1N)c1c(Cl)ccc(F)c1Cl [Crizotinib] (first compound 0.4 µM, partner dose 0.2 µM), for which the cell count is 107% in the experiment with MZ2-MEL; 101% with MeWo; 103% with RPMI7951; 118% with RVH-421; 95.2% in the experiment on SkMel28; 104% with SkMel2. The cell count with SkMel30 worked out at 76.5%; in the experiment on UACC62 it was 92.2%.
For the compound `C[C@]1(O)C[C@@H](c2nc(-c3ccc4ccc(-c5ccccc5)nc4c3)c3c(N)nccn32)C1` + C#Cc1cccc(Nc2ncnc3cc(OCCOC)c(OCCOC)cc23)c1 [erlotinib] (first compound 0.4 µM, partner dose 0.8 µM), the cell count in the experiment with MZ2-MEL was determined as 88.9%; with MeWo, 86.5%; in the experiment with RPMI7951, 95.7%; with RVH-421, 114%; with SkMel28 it was 111%; in the experiment with SkMel2, 82%. Besides, the cell count with SkMel30 amounted to 78.7%; with UACC62 it was 81.9%.
For `COc1cc([C@@H]2c3cc4c(cc3[C@@H](O[C@@H]3O[C@@H]5CO[C@@H](C)O[C@H]5[C@H](O)[C@H]3O)[C@H]3COC(=O)[C@H]23)OCO4)cc(OC)c1O` [etoposide] + COc1ccc(C2=N[C@@H](c3ccc(Cl)cc3)[C@@H](c3ccc(Cl)cc3)N2C(=O)N2CCNC(=O)C2)c(OC(C)C)c1 [Nutlin-3] (first compound 0.02 µM, partner dose 0.1 µM), the cell count in the experiment on MZ2-MEL stood at 102%; in the experiment on MeWo, 98.9%; in the experiment with RPMI7951 it was 102%; with RVH-421, 74%; in the experiment with SkMel28, 92.9%; with SkMel2, 91.2%. For the same compound, the cell count came out at 84.5% in the experiment with SkMel30 and 95.4% with UACC62.
As to `CCN(CC)CCNC(=O)c1c(C)[nH]c(/C=C2\C(=O)Nc3ccc(F)cc32)c1C` [sunitinib] + CC(C)C[C@H](NC(=O)[C@H](Cc1ccccc1)NC(=O)c1cnccn1)B(O)O [Bortezomib] (first compound 0.4 µM, partner dose 0.001 µM), the cell count with MZ2-MEL came out at 102%; in the experiment on MeWo, 85.2%; in the experiment with RPMI7951, 116%; in the experiment on RVH-421, 92.7%; in the experiment on SkMel28, 109%; with SkMel2, 114%. Moreover, the cell count with SkMel30 stood at 97.3%; in the experiment with UACC62 it was 73.2%.
For `C[C@]1(O)C[C@@H](c2nc(-c3ccc4ccc(-c5ccccc5)nc4c3)c3c(N)nccn32)C1` + COCC[n+]1c2c(n(Cc3cnccn3)c1C)C(=O)c1ccccc1C2=O [YM155] (first compound 0.4 µM, partner dose 0.0004 µM), the cell count amounted to 65.8% in the experiment with MZ2-MEL; 93.2% in the experiment on MeWo; 83.9% in the experiment with RPMI7951; 105% with RVH-421; 96.4% with SkMel28; 87% with SkMel2. Further, the cell count in the experiment with SkMel30 turned out to be 101%; with UACC62, 90.8%.
Regarding `COc1cc([C@@H]2c3cc4c(cc3[C@@H](O[C@@H]3O[C@@H]5CO[C@@H](C)O[C@H]5[C@H](O)[C@H]3O)[C@H]3COC(=O)[C@H]23)OCO4)cc(OC)c1O` [etoposide] + Cn1c(Nc2ccc(C(F)(F)F)cc2)nc2cc(Oc3ccnc(-c4ncc(C(F)(F)F)[nH]4)c3)ccc21 [CHIR265] (first compound 0.02 µM, partner dose 0.08 µM), the cell count was found to be 71% in the experiment with MZ2-MEL; 62.3% with MeWo; 65.6% in the experiment with RPMI7951; 70.8% in the experiment with RVH-421; 49% in the experiment with SkMel28; 67.5% in the experiment with SkMel2. For the same compound, the cell count turned out to be 52.1% in the experiment with SkMel30 and 44% with UACC62.
For `Cn1cnc2c(F)c(Nc3ccc(Br)cc3Cl)c(C(=O)NOCCO)cc21` [selumetinib] + Clc1ccc(Nc2nnc(Cc3ccncc3)c3ccccc23)cc1 [vatalanib] (first compound 0.015 µM, partner dose 2 µM), the cell count in the experiment on MZ2-MEL stood at 108%; with MeWo, 71.5%; in the experiment on RPMI7951 it was 93.8%; in the experiment on RVH-421, 85.2%; in the experiment on SkMel28 it was 91%; with SkMel2, 78%. Besides, the cell count stood at 90.3% with SkMel30 and 68% with UACC62.
`C[C@]1(O)C[C@@H](c2nc(-c3ccc4ccc(-c5ccccc5)nc4c3)c3c(N)nccn32)C1` + CN1CCN(c2ccc3nc(-c4c(N)c5c(F)cccc5[nH]c4=O)[nH]c3c2)CC1 [Dovitinib] (first compound 0.4 µM, partner dose 0.1 µM): the cell count in the experiment with MZ2-MEL was 86.1%; in the experiment on MeWo, 88.7%; in the experiment on RPMI7951, 102%; in the experiment with RVH-421, 107%; in the experiment with SkMel28, 81.9%; with SkMel2, 95.4%. Moreover, the cell count was found to be 71.6% in the experiment on SkMel30 and 87.5% in the experiment with UACC62.
On to `Cn1cnc2c(F)c(Nc3ccc(Br)cc3Cl)c(C(=O)NOCCO)cc21` [selumetinib] + NC1(c2ccc(-c3nc4ccn5c(=O)[nH]nc5c4cc3-c3ccccc3)cc2)CCC1 [MK2206] (first compound 0.015 µM, partner dose 0.4 µM), for which the cell count with MZ2-MEL came to 89.3%; in the experiment on MeWo, 81.9%; in the experiment with RPMI7951, 93.7%; in the experiment with RVH-421, 83.8%; in the experiment on SkMel28 it was 89.8%; in the experiment with SkMel2, 63.9%. The cell count with SkMel30 is 51.4%; with UACC62, 63.2%.
Take `C[C@]1(O)C[C@@H](c2nc(-c3ccc4ccc(-c5ccccc5)nc4c3)c3c(N)nccn32)C1` + CC(=O)O[C@@]12CO[C@@H]1C[C@H](O)[C@@]1(C)C(=O)[C@H](O)C3=C(C)[C@@H](OC(=O)[C@H](O)[C@@H](NC(=O)OC(C)(C)C)c4ccccc4)C[C@@](O)([C@@H](OC(=O)c4ccccc4)[C@H]21)C3(C)C [Docetaxel] (first compound 0.4 µM, partner dose 0.0001 µM): the cell count in the experiment with MZ2-MEL was 48.3%; with MeWo, 43.4%; in the experiment with RPMI7951 it was 40.6%; with RVH-421, 76.7%; with SkMel28, 38.8%; with SkMel2, 42%. In addition, the cell count in the experiment on SkMel30 came to 39.7%; in the experiment with UACC62, 39.4%.
In the case of `COc1cc([C@@H]2c3cc4c(cc3[C@@H](O[C@@H]3O[C@@H]5CO[C@@H](C)O[C@H]5[C@H](O)[C@H]3O)[C@H]3COC(=O)[C@H]23)OCO4)cc(OC)c1O` [etoposide] + CC(=O)c1c(C)c2cnc(Nc3ccc(N4CCNCC4)cn3)nc2n(C2CCCC2)c1=O [palbociclib] (first compound 0.02 µM, partner dose 0.04 µM), the cell count in the experiment with MZ2-MEL was found to be 71.7%; in the experiment on MeWo it was 73.8%; in the experiment with RPMI7951 it was 66.8%; with RVH-421 it was 65.4%; in the experiment with SkMel28 it was 79.3%; in the experiment on SkMel2, 83%. In addition, the figures for the cell count with SkMel30 and in the experiment on UACC62 were 71.9% and 67.5%, respectively.
Take `COc1cc([C@@H]2c3cc4c(cc3[C@@H](O[C@@H]3O[C@@H]5CO[C@@H](C)O[C@H]5[C@H](O)[C@H]3O)[C@H]3COC(=O)[C@H]23)OCO4)cc(OC)c1O` [etoposide] + Cn1c(=O)n(-c2ccc(C(C)(C)C#N)cc2)c2c3cc(-c4cnc5ccccc5c4)ccc3ncc21 [NVP-BEZ235] (first compound 0.02 µM, partner dose 0.004 µM): the cell count in the experiment on MZ2-MEL is 96.7%; in the experiment with MeWo, 84.1%; in the experiment with RPMI7951 it was 95%; with RVH-421, 85.9%; in the experiment on SkMel28 it was 93.9%; with SkMel2, 90%. The cell count stood at 93.5% with SkMel30 and 79.2% in the experiment on UACC62.
